Test results taken from PubChem BioAssay AID1508624 (National Center for Advancing Translational Sciences (NCATS), 2021).
In all, about 48,000 compounds went through this assay and about 120 (0.25%) were called active. Not shown: some 4% with an inconclusive outcome. Calls come from the whole dose curve; as a rule, active = well fitted activation curve with a large enough effect; inconclusive = small, poorly fitted or top-dose-only effect, or another doubt; inactive = no such curve, though single readings can be large or run the other way. The list shows a part of the results.

experiment: Primary qHTS for Identification of Small Molecule Activators of Huntingtin-Antisense Promoter Activity; settings: HEK293 HTT-AS promoter firefly luciferase reporter, 24 h; series mostly up to 57.5 µM; activity change, positive = activation: at the top concentration; note: nearly all actives have a fitted effect of over 55% in size
Procedure, shortened: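 Luminescence was read after Dual-Glo reagent and a 10 min room-temperature incubation. Values were normalized to vehicle (0% activity) and zero RLU (-100% activity). Reporter HEK293 cells had been exposed to compounds (up to 57.5 uM final) for 24 h.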

With `CCc1ccc(-n2nc(CO)c(C(=O)NCc3cccs3)n2)cc1` as the compound, how does the “activity change, positive = activation” value read?
The value was inactive: 15.7%.

Which “activity change, positive = activation” value does the source give for `CC(C)Oc1ccc(CNC(=O)c2ccc(NC(=O)N3CC(C)Sc4ccccc43)cc2)cc1` (configuration not stated) here?
Its value is inactive: -18.7%.

With `O=C(/C=C/c1ccccc1)Nc1nc2n(n1)C(c1ccc(F)cc1)C=C(c1ccccc1)N2` (configuration not stated) as the compound, how does the “activity change, positive = activation” value read?
The value was inactive: -32.9%.

For `CC1CCc2onc(C(=O)N3CCN(c4cccc(Cl)c4)CC3)c2C1` (configuration not stated), which “activity change, positive = activation” value is on record?
Its value is inactive: -31.5%.

With `Cc1cc(Br)cc2c1N(Cc1ccccc1OC(C)C)C(=O)C2=O` as the compound, how does the “activity change, positive = activation” value read?
Its value is inactive: -57.6%.

Which “activity change, positive = activation” value does the source give for `CCOC(=O)CNC(=O)c1cc2c(=O)n3cccc(C)c3nc2n1C` here?
The value was inactive: -8.34%.

For `CC(=O)CC/C=C(\C)CC/C=C(\C)CC/C=C(\C)CCC=C(C)C`, which “activity change, positive = activation” value is on record?
The value was inactive: -1.24%.

Which “activity change, positive = activation” value does the source give for `CCCCNc1c(C(=O)OCC)c(C)nc2c1cnn2CC` here?
Its value is inactive: -30.5%.

With `COc1ccc(CCNC(=O)c2cc(=O)c3ccc(C)cc3o2)cc1OC` as the compound, how does the activity change, positive = activation read?
The activity change, positive = activation was inactive: 8.87% [at 11.5 µM, percent change from vehicle, -100% = no light].

Which “activity change, positive = activation” value does the source give for `CCCCCn1c(=O)[nH]c2cc(C(=O)NC(C)CC)ccc2c1=O` (configuration not stated) here?
Its value is inactive: -9.42%.

For `COc1ccc(C(=O)Nc2ccc3oc(-c4cccnc4)nc3c2)cc1OC`, which “activity change, positive = activation” value is on record?
Its value is inactive: -29.6%.

Which “activity change, positive = activation” value does the source give for `COCCn1c(=O)[nH]c2cc(C(=O)Nc3ccc(OC)cc3)ccc2c1=O` here?
Its value is inactive: -17.5%.

With `Cc1ccc2c(c1)cc(C(=O)NCc1ccccc1C)n2C` as the compound, how does the “activity change, positive = activation” value read?
Its value is inactive: -19.2%.

For `CCc1cnc2c(c1SCC(=O)Nc1ccc(C(=O)OC)cc1)c(=O)n(C)c(=O)n2C`, which “activity change, positive = activation” value is on record?
Its value is inactive: -6.77%.

Which “activity change, positive = activation” value does the source give for `CC(C)Oc1ccc(CNC(=O)C2CCN(Cc3cc4ccccc4n3Cc3ccccc3)CC2)cc1` here?
The value was inactive: -27.2%.

For `CC(C)(C)c1ccc(OCCOCCn2c(-c3ccc(Cl)cc3)nc3ccccc3c2=O)cc1`, which “activity change, positive = activation” value is on record?
The value was inactive: 3.26%.

Which “activity change, positive = activation” value does the source give for `O=C(COC(=O)c1cccc(NC(=O)c2ccc(Br)cc2)c1)c1ccc(Cl)cc1` here?
The value was inactive: -39.3%.

With `CCn1c2ccccc2c2cc(NC(=O)COc3cc(C)ccc3C)ccc21` as the compound, how does the “activity change, positive = activation” value read?
Its value is inactive: -5.03%.

For `Cc1cccc(Cn2c(COc3ccccc3)nc3ccccc32)c1`, which “activity change, positive = activation” value is on record?
Its value is inactive: -13%.

Which “activity change, positive = activation” value does the source give for `Cc1nn(C)c(C)c1CCNC(=O)Nc1ccccc1C(F)(F)F` here?
The value was inactive: -14%.

For `COc1ccc(N2CC(NC(=O)/C=C\c3ccccc3)CC2=O)cc1OC` (configuration not stated), which “activity change, positive = activation” value is on record?
The value was inactive: -1.48%.

For `CCN(CC)c1nn2c(=O)c(C(=O)NCc3ccc(N(C)C)cc3)cnc2s1`, which “activity change, positive = activation” value is on record?
The value was inactive: 0.273%.

For `CCC(=O)N1CCc2cc(S(=O)(=O)NC(C(=O)NCCc3cccc(C)c3)C(C)C)ccc21` (configuration not stated), which “activity change, positive = activation” value is on record?
Its value is inactive: 4.46%.

Which “activity change, positive = activation” value does the source give for `CN(Cc1ccco1)S(=O)(=O)c1nnc(NC(=O)c2ccccc2Cl)s1` here?
The value was inactive: -6.52%.

With `O=C(NCc1cccs1)c1ccc(CSc2nc3ccncc3n2Cc2ccccc2F)cc1` as the compound, how does the “activity change, positive = activation” value read?
Its value is inactive: 11.7%.

Which “activity change, positive = activation” value does the source give for `CC1CCCN(CCCNC(=O)c2cc3c(Cl)nc4ccccc4c3s2)C1` (configuration not stated) here?
Its value is inactive: -32.5%.

For `COc1ccc(C(=O)CCC(=O)Nc2ccc(C)c(Cl)c2)cc1`, which “activity change, positive = activation” value is on record?
The value was inactive: 4.75%.

For `COc1cc(Cl)c(C)cc1Nc1nc2ccccc2n2cnnc12`, which “activity change, positive = activation” value is on record?
Its value is inactive: -15.3%.

With `COc1ccccc1CNC(=O)C1CCN(S(=O)(=O)c2cn(C)cn2)CC1` as the compound, how does the “activity change, positive = activation” value read?
The value was inactive: -9.24%.

Which “activity change, positive = activation” value does the source give for `O=C(NCCc1csc(-c2ccc(F)cc2)n1)c1cccc(F)c1` here?
Its value is inactive: -28.5%.

For `Cc1ccc(C2c3[nH]c4ccccc4c3CCN2C(=O)CSCc2ccc(F)cc2)cc1` (configuration not stated), which “activity change, positive = activation” value is on record?
Its value is inactive: -26.8%.

With `CCc1ccccc1N(C)C(=O)c1sc2nc3n(c(=O)c2c1C)CCCCC3` as the compound, how does the “activity change, positive = activation” value read?
The value was inactive: -0.509%.

Which “activity change, positive = activation” value does the source give for `CCc1cccc(C)c1NC(=O)c1cnn(-c2ccc(OC)cc2)c1C1CCN(C(=O)OC(C)(C)C)CC1` here?
The value was inactive: -35.1%.

With `COc1ccc(NC(=O)c2nc(-c3ccc(C)cc3)n3c2CCCCC3)c(OC)c1` as the compound, how does the “activity change, positive = activation” value read?
Its value is inactive: -4.56%.

For `CCOCCc1nn2c(=O)cc(COC(=O)c3ccc(NC(=O)C(C)(C)C)cc3)nc2s1`, which “activity change, positive = activation” value is on record?
The value was inactive: -36.3%.

Which “activity change, positive = activation” value does the source give for `Cc1cc2oc(C(=O)N(Cc3ccco3)Cc3ccccc3Cl)c(C)c2cc1C` here?
Its value is inactive: -21.5%.

Which “activity change, positive = activation” value does the source give for `CCOC(=O)c1ccccc1NC(=O)c1cnc(N2CCOCC2)c2ccccc12` here?
The value was inactive: -20.8%.

With `COc1ccc(C(=O)N(Cc2ccc(N(C)C)cc2)CC2CCCO2)cc1` (configuration not stated) as the compound, how does the “activity change, positive = activation” value read?
The value was inactive: -1.27%.

Which “activity change, positive = activation” value does the source give for `COc1cc(NC(=O)CSc2nc(-c3ccc(C(C)C)cc3)no2)cc(OC)c1` here?
The value was inactive: -86.5%.

For `COc1ccc(NC(=O)CSc2cn(CCNC(=O)c3c(F)cccc3F)c3ccccc23)cc1`, which “activity change, positive = activation” value is on record?
The value was inactive: -32.6%.

For `Cc1ccc(NC(=O)CSc2nc3ccc(NC(=O)CCc4ccccc4)cc3s2)cc1`, which “activity change, positive = activation” value is on record?
Its value is inactive: -3.27%.

Which “activity change, positive = activation” value does the source give for `CCN1CCN(Cc2c(O)ccc3c(=O)c(Oc4ccccc4C(C)C)c(C(F)(F)F)oc23)CC1` here?
The value was inactive: 0%.

For `CCCN1CCN(CCCNC(=O)Cn2nc(C)n3c(cc4c(OC)cccc43)c2=O)CC1`, which “activity change, positive = activation” value is on record?
The value was inactive: -1.24%.

With `Cc1ccc(CNC(=O)c2cc3ccc4cccnc4c3[nH]2)cc1` as the compound, how does the “activity change, positive = activation” value read?
The value was inactive: 18.1%.

With `Cc1ccc(NC(=O)Cn2cnc3c2c(=O)n(C)c(=O)n3C)cc1C` as the compound, how does the “activity change, positive = activation” value read?
The value was inactive: -5.87%.

Which “activity change, positive = activation” value does the source give for `CCN(C(=O)Cn1c(=O)n(Cc2ccccc2)c(=O)c2c1c1cc(OC)ccc1n2C)c1ccccc1` here?
Its value is inactive: -6.6%.

With `COc1ccc(-c2noc(-c3ccc(NC4CCCC4)c([N+](=O)[O-])c3)n2)cc1OC` as the compound, how does the “activity change, positive = activation” value read?
Its value is inactive: -0.675%.

For `Cc1ccccc1CNC(=O)c1ccc2nc(C(C)C)oc2c1`, which “activity change, positive = activation” value is on record?
Its value is inactive: 25%.

With `COc1cc(Cl)c(C)cc1NC(c1ccccc1)c1nnc(-c2ccccc2Cl)o1` (configuration not stated) as the compound, how does the “activity change, positive = activation” value read?
Its value is inactive: -3.67%.

With `CC(=O)Nc1ccc2nc(NC(=O)CS(=O)(=O)c3ccc(C)cc3)sc2c1` as the compound, how does the “activity change, positive = activation” value read?
Its value is inactive: 4.31%.

With `COc1ccc(C2=Nc3ccc(OC(F)(F)F)cc3NC(c3cccnc3)=N2)cc1` as the compound, how does the “activity change, positive = activation” value read?
Its value is inactive: -52.7%.

For `Cc1ccc(C)c(N2CCN(S(=O)(=O)c3cn(C)c(C)n3)CC2)c1`, which “activity change, positive = activation” value is on record?
The value was inactive: -19.6%.

For `COC(=O)C=CC(=O)OC`, which “activity change, positive = activation” value is on record?
Its value is inactive: -30.7%.

For `COc1ccc(CNC(=O)C2CCN(S(=O)(=O)c3ccc4c(c3)CCCN4C(C)=O)CC2)cc1`, which “activity change, positive = activation” value is on record?
Its value is inactive: -21.6%.

Which “activity change, positive = activation” value does the source give for `COCc1cc(C)nc2sc3c(=O)n(-c4ccccc4C(F)(F)F)nnc3c12` here?
Its value is inactive: 9.41%.

With `Cc1ccc(C)c(CSc2nnc3[nH]c(=O)cc(-c4ccccc4)n23)c1` as the compound, how does the “activity change, positive = activation” value read?
The value was inactive: 5.09%.

For `CCCn1cc(S(=O)(=O)c2cc(C)ccc2C)c(=O)c2cc(F)c(N3CCN(CC)CC3)cc21`, which “activity change, positive = activation” value is on record?
Its value is inactive: -11.2%.

Which “activity change, positive = activation” value does the source give for `CCOC(=O)c1c(S(=O)(=O)NCC(=O)NCc2ccccc2Cl)c(C)n(C)c1C` here?
The value was inactive: -6.66%.

With `Cc1cccc(NC(=O)C2CCN(S(=O)(=O)c3ccc4c(c3)CCCN4C(=O)C3CCC3)CC2)c1` as the compound, how does the “activity change, positive = activation” value read?
The value was inactive: -26.3%.

For `COCCCn1c(=O)c2sccc2n2c(CCCC(=O)NC3CCC(C)CC3)nnc12` (configuration not stated), which “activity change, positive = activation” value is on record?
The value was inactive: -7.43%.

Which “activity change, positive = activation” value does the source give for `CCCCCCCc1ccc(CCc2cccc(O)c2C(=O)O)cc1` here?
The value was inactive: -9.74%.

With `Cc1cccc(C)c1-n1ncc(C(=O)N2CCN(c3ncccn3)CC2)c1C1CCN(C(=O)OC(C)(C)C)CC1` as the compound, how does the “activity change, positive = activation” value read?
The value was inactive: 15.2%.
